The labels stand for the following.
B1: chr17:4937608:4937709:-|3pUTR|ENSG00000108528|msi1|total|mutant (ssRNA)
RNA: GGGAGUUCUACAGUCCGACGAUCAAGCGUCUCUUCCUCAGUGGCUGAAGCGGCCGGGGGCUCCCACUCGCCUGCUGCGCCUACCGCCACUGCGCCCUGGGGGCCUGGGCUCUGCUGCCCUGGACCCCUCUAUUUAUUUCCCUUCAACAGAGGAUUGAGCAUCA
B2: chr5:72207278:72207408:+|3pUTR|ENSG00000131711|msi1_unk|FALSE|overlapping (ssRNA)
RNA: GGGAGUUCUACAGUCCGACGAUCAGAGAACAAUGACCUCAUUUUAUUUUCUAUGUUAGUUAUUUAUUUCAAAAUUAACAUUUUAGUUGAUUUUUGUCUGAUAAGUCUAUGUUUUGCACUGCUAACUAUGAUGAGGGUUUAAAACAACAGAGGAUUGAGCAUCA
B3: chr3:81489889:81489990:-|3pUTR|ENSG00000114480|msi1|total|mutant (ssRNA)
RNA: GGGAGUUCUACAGUCCGACGAUCUUGGUCUAAAUUAUGAGGUACCAAGAUUGUUUCUUUGUUUCUUUUUUUCAAAUUGUGUUCCGAAAUACUGUAAUAAAUAUGCAGCCGUGAUAUAAAGAAUUAUAUCCAAGGUAAUAUAAACAACAGAGGAUUGAGCAUCA
B4: chr11:108393207:108393378:-|CDS|ENSG00000166323|control|control|control (ssRNA)
RNA: GGGAGUUCUACAGUCCGACGAUCUCUAGGACUAAUUCACACUGCAACAAAGGGGCUGAUUAGAGCUUUUGAAGAUGGGGGGAUAGAUUCUGUGAUGGAAUGGGAAGUGGAUGAAGUGCUGAACUGGACAAAUACACUGAACUUCAACAGAGGAUUGAGCAUCA
B5: chr5:72209348:72209524:+|3pUTR|ENSG00000131711|msi1_unk|total|mutant (ssRNA)
RNA: GGGAGUUCUACAGUCCGACGAUCUUAUGUCUUAUAAUCCUGCAUCACUUCUAUCCUAUCCAGUCAUAUCUAAUGCCGAAAAUCCGUUUCCAGUGAAAGUAAUAUGCCGUGCUUUUAUGAUAUUUGUGUGCAAUAUCCCCUCUUCAACAGAGGAUUGAGCAUCA
B6: chr5:136174412:136174513:+|CDS|ENSG00000113658|unk|FALSE|unique (ssRNA)
RNA: GGGAGUUCUACAGUCCGACGAUCUAUGUUGGUGGAGAGGUGUAUGCGGAAUGCCUCAGUGACAGCAGCAUAUUUGUACAGAGUAGGAACUGCAACUUUCAUCAUGGCUUUCAUCCCACCACUGUCUGUAAGAUUCCCAGCAGCCAACAGAGGAUUGAGCAUCA
B7: chr14:92688591:92688692:+|3pUTR|ENSG00000100599|msi1|total|mutant (ssRNA)
RNA: GGGAGUUCUACAGUCCGACGAUCUCCCCAUGAGUCCCCCACACCCACCCCAUCCUCGGUCUUUGCAAAGAAGGGCCCGAGCUCCGUUUCCCCAGGACUGGCCCCGGAAGGAGCACCGGCCACAGCUGCUCCCCGUGCCACUCACAACAGAGGAUUGAGCAUCA
B8: chr8:93923365:93923466:+|CDS|ENSG00000164951|msi1|FALSE|unique (ssRNA)
RNA: GGGAGUUCUACAGUCCGACGAUCGCAGGAUGUGGUUAGGAUUGUGGGUGAGUACCUAACUGGCAUGCAUCACCAACAGCCAAUAGCUGUUGGUGGCUACAAGGUGACUCUGGGACAGAUGCAUGGCCUUUUAACAGAAAGGAGCAACAGAGGAUUGAGCAUCA
B9: chr9:97930034:97931221:-|CDS|ENSG00000136929|control|control|control (ssRNA)
RNA: GGGAGUUCUACAGUCCGACGAUCCAAUGAAACAGAUCAAGGAAUAGCUGAGACAGAAGGCCUUUUUCCUAAAAUACAAGAAAUAGCUGAGCCUAAAGACCUUUCUACAAAAACACACCAAGAAUCAGCUGAACCUAAAUACCUCAACAGAGGAUUGAGCAUCA
B10: chr22:29286963:29287064:+|CDS|ENSG00000182944|unk|total|mutant (ssRNA)
RNA: GGGAGUUCUACAGUCCGACGAUCCAGAGCAGUUACUCUCAGCAGAACACCUAUGGGCAACCGAGCAGCUAUGGACAGCAGAGCCGCUAUGGUCAACAAAGCAGCUAUGGGCAGCAGCCUCCCACCCGUUACCCACCCCAAACUCAACAGAGGAUUGAGCAUCA
B11: chr14:96489241:96489342:+|3pUTR|ENSG00000140057|unk|total|mutant (ssRNA)
RNA: GGGAGUUCUACAGUCCGACGAUCUAAAGUGUAUAAUUCAGUGGCACUAAGUUCAUUCACAAUGAUCUGCAGCCACCACUAUCCCGUCCAGAACUUUCUCAUCACCCCAAAUGGAAACCCAGCACCUAUCCGGCAGUCACGCUCCAACAGAGGAUUGAGCAUCA
B12: ENSG00000130720:stop:overlap|stop_codon|ENSG00000130720|stop_codon|NA|stop_codon (ssRNA)
RNA: GGGAGUUCUACAGUCCGACGAUCGCUGGCAGUACUCACUCAAGUUCUCUGAGAUGAAGAUCCGGCCGGUCCGGGAGGACCGCUAGACUGGUGCACCUUGUCCUUGGCCCUGCUGGUCCCUGUCGCCCCAUCCCCGACCCCACCCAACAGAGGAUUGAGCAUCA
B13: chr16:46956839:46956924:-|3pUTR|ENSG00000069345|msi1_unk|FALSE|overlapping (ssRNA)
RNA: GGGAGUUCUACAGUCCGACGAUCAUCAAUCCAGAUGAACUGAGGGACAUCUGUUGGUCUAUGUAUAACUUUUAAAAUUGGUAUAGUAUCUACAGAGUGUAUAAUUUAAACUAACCACAAAGCUUUACAUCUUCAUUUUGACUGCAACAGAGGAUUGAGCAUCA
B14: chr4:87981664:87981765:+|CDS|ENSG00000118785|msi1|FALSE|unique (ssRNA)
RNA: GGGAGUUCUACAGUCCGACGAUCCACUGAUUUUCCCACGGACCUGCCAGCAACCGAAGUUUUCACUCCAGUUGUCCCCACAGUAGACACAUAUGAUGGCCGAGGUGAUAGUGUGGUUUAUGGACUGAGGUCAAAAUCUAAGAACAACAGAGGAUUGAGCAUCA
B15: chr11:57233576:57235861:-|three_prime_utr|ENSG00000134817|control|control|control (ssRNA)
RNA: GGGAGUUCUACAGUCCGACGAUCAGAGAAGCCUGGCGCCCUCGGCCCUCCCCGGCCUUUGCCCUUGCUUUCUGAAAAUCAGGUAGUGUGGCUACUCCUUGUCCUAUGCACAUCCUUUAACUGUCCCCUGAUUCUGCCCCGCCCCAACAGAGGAUUGAGCAUCA
B16: ENSG00000198589:be:win_3601|CDS|ENSG00000198589|bound_else_gene|NA|bound_elsewhere_windowed (ssRNA)
RNA: GGGAGUUCUACAGUCCGACGAUCGUAGAAUCAGACCUUGGUCAGAUGCUGGAGGAAGGGAAGAAAGCAACUAACCUCACUAGAGAAACCAAAUUAAUUAAUGAUUGUCAUGGUAGUGUCUCUGAGGCUUCUUCUGAGCAAAAGCAACAGAGGAUUGAGCAUCA
B17: chr15:63071210:63071313:+|3pUTR|ENSG00000140416|unk|total|mutant (ssRNA)
RNA: GGGAGUUCUACAGUCCGACGAUCCCUUAAAUGCAAUUUAUUUACUUUUACCACUGUCACAGAAACAUCCACAAGAUACCAGCCCGGUCAGGGGGUGGGGAAAACACAUACAAAAAGGCAAGCCCAUGUCAGGGCGAUCCUGGUCAACAGAGGAUUGAGCAUCA
B18: ENSG00000124766:be:win_3251|3pUTR|ENSG00000124766|bound_else_gene|NA|bound_elsewhere_windowed (ssRNA)
RNA: GGGAGUUCUACAGUCCGACGAUCUCUCACACAGUUUAAAAAAUCAGCCCCUAAUUUCUCCAUGUUUACACUUCAAUCUGCAGGCUUCUUAAAGUGACAGUAUCCCUUAACCUGCCACCAGUGUCCACCCUCCGGCCCCCGUCUCAACAGAGGAUUGAGCAUCA
B19: chr15:80137503:80137604:+|CDS|ENSG00000086666|unk|total|mutant (ssRNA)
RNA: GGGAGUUCUACAGUCCGACGAUCCAAUUGCUCUUACAAUUACAAAGCCGAUGCUGCUGAGAAAAUCAGAAAAGAAAAUCCAGCCGUUGUUGGUGAAAAGAUCCAAAAGAUUUGAACUCCUGCUGGAAUACAAAAUUCUUGAGCCAACAGAGGAUUGAGCAUCA
B20: chr7:82953248:82953350:-|CDS|ENSG00000186472|unk|total|mutant (ssRNA)
RNA: GGGAGUUCUACAGUCCGACGAUCAACAGAUAUACACCCCAAACCAACAGGCCUAUCUUUAACUUCAAGUAUGACCUUAAAUUCCGUGACUUCAGCAGAUUAUAAAUUGCCUUCCCCUACCUCCCCACUUUCCCCACACUCCAACAACAGAGGAUUGAGCAUCA
B21: chr12:51809400:51809501:+|3pUTR|ENSG00000196876|unk|FALSE|unique (ssRNA)
RNA: GGGAGUUCUACAGUCCGACGAUCCUGCCUUGCAGUAGAAGCACUUUGAAGGUAAUUUCACAGUCCACCAGACUAGUUUUGCAUAGAACAAACCACAGUAAGUCGGCAAGCAGAGCUUUCUAUCUUGUUGGACCACUAGAAACUCAACAGAGGAUUGAGCAUCA
B22: chr2:197486603:197486717:-|3pUTR|ENSG00000144381|unk|FALSE|unique (ssRNA)
RNA: GGGAGUUCUACAGUCCGACGAUCCCACCAGAUGAGAAGUUAAGCAGCCUUUCUGUGGAGAGUGAGAAUAAUUGUGUACAAAGUAGAGAAGUAUCCAAUUAUGUGACAACCUUUGUGUAAUAAAAAUUUGUUUAAAGUUAAUAACAACAGAGGAUUGAGCAUCA

This is one part of the list.

This assay concerns the target T1, UNK ZnF1-6 (called full-length) (human, UniProt Q9C0B0 30-357).
T1 sequence: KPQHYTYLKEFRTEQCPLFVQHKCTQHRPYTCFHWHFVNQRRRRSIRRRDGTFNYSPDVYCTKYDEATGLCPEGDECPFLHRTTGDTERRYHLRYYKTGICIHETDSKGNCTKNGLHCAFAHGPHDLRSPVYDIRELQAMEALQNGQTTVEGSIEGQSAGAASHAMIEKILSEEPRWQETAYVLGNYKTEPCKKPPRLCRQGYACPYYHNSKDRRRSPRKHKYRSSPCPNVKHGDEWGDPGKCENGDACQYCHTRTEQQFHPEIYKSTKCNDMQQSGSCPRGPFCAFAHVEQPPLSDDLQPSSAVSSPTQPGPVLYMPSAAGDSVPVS
Kind of assay: nsRBNS (natural sequence RNA bind-n-seq); RBNS binding buffer (assumed for nsRBNS): 25 mM Tris pH 7.5, 150 mM KCl, 3 mM MgCl2, 0.01% Triton X-100, 500 ug/ml BSA, 20 U/ml SUPERase-In, 4 C; UNK is unkempt and MSI1 is Musashi-1; names of the RNAs are library labels; protein concentration not given here; high values mean tight binding.
As to B1, the binding signal worked out at 1.03 enrichment R.
The molecule B2 gave a binding signal of 1.13 enrichment R.
As to B3, the binding signal stood at 0.704 enrichment R.
In the case of B4 it was 1.22 enrichment R.
The value for B5 was 0.553 enrichment R; that for B6 was 0.616 enrichment R.
Turning to B7, the binding signal was found to be 0.845 enrichment R.
In the case of B8 it was 0.634 enrichment R; in that of B9, 0.286 enrichment R; in that of B10, 0.876 enrichment R.
As to B11, the binding signal is 0.445 enrichment R.
In the case of B12 it was 1.34 enrichment R; in that of B13, 0.932 enrichment R.
The value for B14 was 0.646 enrichment R.
Molecule B15 came in with a binding signal of 1.03 enrichment R.
Molecule B16 came in with a binding signal of 1.51 enrichment R.
Consider B17, for which the binding signal amounted to 1.67 enrichment R.
The value for B18 was 1.03 enrichment R; that for B19 was 0.334 enrichment R; that for B20 was 0.855 enrichment R.
The value for B21 was 1.04 enrichment R; that for B22 was 1.01 enrichment R.
